From the RNAGym collection of RNA variant scans (doi:10.7554/elife.90254)
The source gives no read counts; variants with many changes may rest on few reads.

B1: OR4K15 (parent)
chain: GUUAACGGUCAUAGGCCAUGGAAACUAGGAGCACCAUUUCGCUGCCAGUGAAGAAAUGAACAAAGAAAAUCUGGGCCAGGCAGGCAUCAAAAGAAAUAGUCUUGCGCUCAACCAGAAAGUCUGUAAUCAUUUUAAGGGUA

Variants of: B1
Experiment: self-cleavage, relative activity (ratio to wild type); higher = more cleavage; in vitro, sequencing; the parent is a self-cleaving ribozyme

Variant | self-cleavage
GUUAACGGUCAUAGGCCAUGGAAACUAGGAGCACCAUCUCGCUGCCAGAGAAGAAAUGUACAAAGAAAAUCUGGGCCAGGCAGGCAUCAAAAGAAAUAGUCUUGCGUUCAACCAGAAAGUCUGUAAUCAUUUUAAGGGUA | 0.03
GUUAUCGGUCAUAGGCCAUGGAAACUAGGAGCACCAUUUCGCUGCCAGUGAAGAAAUGAACAAAGAAAAUCUGGGCCAGGCAGGCAUCAAAAGAAAUAGACUUGCGCCCAACCAGAAAGUCUGUAAUCAUUUUAAGGGUA | 0.01
GUUAACGGUCAUAGGCCAUGGAAACUAGGAGCACCAUUUCGCUGCCAGUGAAGAAUUGAGCUAAGAAAAUCUGGGCCAGGCAGGCAUCGAAAGAAAUAGUCUUGCGCUCGACCAGAAAGUCUGUAAUCAUUUUAAGGGUA | 0.06
GCUAACGGUCAUUGGCCAUGGAAACUAGGAGCACCAUUUCGCUGCCAGUGAAGGAAUGAACAAAGAAAAUCUGGGCCAGGCAGGCAUCAAAAGAAAUAGUCUUGCGCUCAACCAGAAAGUCUGUAAUCAUUUUAAGGGUA | 1.32
GUUAACGGUUAUAGGCCAUGGAAACUAGGAGCACCAUUUCGCUGCCAGUGAUGAGACGAACAAAGAAAAUCUGGGCCAGGCAGGCAUCAAAAGAAAUAGUCUUGCGCUCAACCAGAAAGUCUGUAAUCAUUUUAAGGGUA | 0.45
GUUAACGGUCAUAGGCCAUGGAAACUAGGAGCACCAUUUCGCUGCCAGUGAAGAAAUGAGCAAAGAAAAUCUGGGCCAGGCAGGCAUCAAAAGAAAUAGUCUUGCGCUCAACCAGAAAGACUGUAAUCAUUCUAAGGGUA | 1.08
GUUAACGGUCAUAGGCCAUGGAAACUAGGAGCACCAUUUCGCUGCCAGUGAAGAAAUGAACAAAGGAAAUCUGGGCCAGGCAGGCAACGAGAGAAAUAGUCUUGCGCUCAACCAGAAAGUCUGUAAUCAUUUUAAGGGUA | 0.44
GUUAACGGUCAUAGGCCAUGGAGACUAGGAGCACCAUUUCGCUGCCAGUGAAGAAGUGAACAAAGAAAAUCUGGGCCAGGCAGGCUUCAAAAGAAAUAGUCCUGCGCUCAACCAGAAAGUCUGUAGUCAUUUUAAGGGUA | 1.26
GUUAACGGUCAUAGGCCAUGGAAACUAGGAGCGCCAUUUCGCUGCCAGUGAAGAAAUGAACAAAGAAUAUCUGGGCCAGGCAGGCACCAAAAGAAAUAGUCUUGCGCUCAACCAGGAAGUCUGUAAUCAUUUUAAGGGUA | 0.16
GUUAACGGUCGUAGGCCAUGGAAACUUGGAGCACCAUUUCGCAGCCAGUGAAGAAAUGAACAAGGAAAAUCUGGGCCAGGCAGGCAUCAAAAGAGAUAGUCUCGCGCUCAACCAGAAAGUCUGUAAUCAUUUUAAGGGUA | 1.32
GAUAACGGUCACAGGCCAUGGAAGCUAGGAGCACCACUUCGCUGCCAGUGAAGAAAUGAACAAAGAAAAUCUGGGCCAGGCAGGCAUCCAAAGAAAUAGUCUUGCGCUCAACCAGAAGGUCUGUAAUCAUUUUAAGGGUA | 0.86
GUUAACGGUCAUAGGCCAUGGAAACUAGGAGCACCAUUUCGCUGCCAGUGAAGAAAUGAACAAAGAAAAUCUGGGCCAGGCAGGCAUCAAAAGAACUAGUCUUGCGCUCAACCAGGAGGUCUGUAAUCAUUUUAAGGGUA | 0.04
GUUAACGGUCAUAGGCCAUGGAAACUAGGAGCACCAUUUCGCUGCCAGUGAAGAAAUGAACGAAGAAAAUCUGGGCCAGGCCGGCAUCAAAAGAAAUAGUCUUGCGCUCAACCAGAACGUCUGUAAUCAUUUUAAGGGUA | 0.09
GUUAACGGUCAUAGGCCAUGGAGACUCGGAGCACCUUUUCGCUGCCAGUGAAGAAAUGAACAAAGAAAAUCUGGGCCAGGCAGGCAUCAGAAGAGAUAGUCUCGCGCUCAACCAGAAAGUCUGUAAUCAUUUUAAGGGUA | 1.84
GUUAACGGUCAUAGGCCAUGGAGACUAGGAGCACUAUUCCGCUGCCAGUGAAGAAAUGAACAAAGGAAAUCUGGGCCAGGCAGGCAUCAGAAGAAAUAGUCUUGCGCUCAACCAGAAAGUCUGUAAUCAUUUUAAGGGUA | 1.22
GUUAACGGUCAUAGGCCAUGGAAACUAGGAGCACCAUUUCGCUGCCAGUGGAGAAAUGAACAAAGAAAAUCUGGGCCAGGCAGGCAUCAAAAGAAAUAGUCUUGCGCUCCACCAGAGAGUCUGUAACCAUUUUAAGGGUA | 0.27
GUUAACGGUCCUAGGCCAUGGAAACUAAGAGCGCCAUUUCGCUGCCAGUGAAGAAAUGAACAAAGAAAAUCUGGGCCAGGCAGGCAUCAAAAGAAAUAGUCUUGCGCUCAACCAGAAAGUCUGUAAUCAUUUUAAGGGUA | 1.16
GUUAACGGUCAUAGGCCAUGGAAACUAGGAGCACCAUUUCGCUGCCAGUGAAGAAACGAACAAAGAAAAUCUGGGCCAGGCAGGCACCAAAAGAAAUAGUCUUGCGCUCAACCUGAAAGUCUGUAAUCAUUUUAAGGGUA | 0.04
GUUAACGGUCAUAGGCCAUGGAAACUAGGAGCACCGUUUCGCUGCCAGUGAAGAAAUGAACAAAGAAAAUCUGGGCCUGGCAGGCAUCAAAAGAAAUAGUCCUGCGCUCAACCAGAAAGUCUGUAAUCAUUUUAAGGGUA | 0.85
GUUAACGGUCAUAGGCCAUGGAAACUAGGGGCACCAUUUCGCUGCCAGUGAAGAAAUGAACAAAGAAGAUCUGGGCCAGGCAGGCAUCAAAAGAAAUAGUCUUGCGCUCAACCAGGAAGUCUGUAAUCAUUUUAAGGGUA | 0.99
GUUAACGGUCAUAGGCCAUGGAAACUAGGAGCACCAUUUCGCUGCCAGUGAAGAAAUGAACAAAGAAAAUCUGGGCCAGGUAGGCAUCAAAAGAAAUAGUCUUGCGCUCAACCAGAAUGUCUGUAAUCAUUUUAUGGGUA | 0.14

Variant | self-cleavage
GUUAACGGUCAUAGGCCAUGGAAACUAGGAGCGCCAUUUCGAUGCCAGUGAAGAAAUGAACAAAGAUAAUCUGGGCCAGGCAGGCAUCAAAAGAAAUAGUCUUGCGCUCAACCAGAAAGUCUGUAAUCAUUUUAAGGGUA | 0.56
GUUAACGGUCAUAGGCCAUGGAAACUAGGAGCACCAUUUCGCUGCCAGUGAGGAAAUGGACAAAGAAAAUCUGGGCCAGGCAGGCAUCAAAAGAAAUAGUCUCGCGCUCAACCAGAAAGUCUGUAAUCAUUUUAAGGGUA | 1.15
GUAAACGGUCAUAGGCCAUGGAAACCAGGAGCACCAUUUCGCUGCCAGUGAAGAAAUGAACAAAGAAAAUCUGGGCCAGGCUGGCAUCAAAAGAAAUAGUCUUGCGCUCAACCAGAAAGUCUGUAAUCAUUUUAAGGGUA | 0.24
GUUAACGGUCAUAGGCCAUGGAGACUAGGAGCACCAUUUCGCUGCCAGUGAAGAAAUGAACAAAGAAAAUCUGGGCCAGGCAGGCAUCAAGAGAAACAGUCUUGCGCUCAACCAGAAAGUCUGUAAUCAUUUUAAGGGUA | 0.92
GUUAACGGUCAUAGGCCAUGGAAACUAGGAGCAUCAUUUCGCUGCCAGUGAAGAAAUGAACAAAGAAAAUCUGGGCCAGGCAGGCAUCAAAAGUAAUAGUCUUGCGCUCAACCAGAAAGUCUGUAAUCAUUUUAGGGGUA | 1.77
GUUAACGGUCAUAGGCCAUGGAAACUAGGAGCACCAUUACGCUGCCAGUGAAGAAAUGAACAAAGAAAAUCUGGGCCAGGCAGGCAUCAAAGGAAAUAGUCUUGCGCUCAACCAGAAAGUCUGUAAUCACUUUAGGGGUA | 1.28
GUUAACGGUCAUAGGCCAUGGAAACUAGGAGCACCAUUUCGCUGCCAGUGAAGAAAUGAUCAAAGAAGAUCUGGGCCAGGCAGGCGUCAAAAGAAAUAGUCUUGCGCUCAACCAGAGAGUCUGUAAUCAUUUUAAGGGUA | 1.21
GUUAACGGUCAUAGGCCAUGGAAACUAGGAGCACCACUUCGCUGCCAGUGAAGAUAUGAACAAAGAAAAUCUGGGCCGGGCAGGCAUCAAAAGGAAUAGUCUUGCGCUCAACCAGAAAGUCUGUAAUCAUUUUAAGGGUA | 0.18
GUUAACGGUCAUGGGCCAUGGAAACUAGGAGCACCAUUUCGCUGCCUGUGAAGAAAUGAACAAAGAAAAUCUGGGCCAGGCAGGCAUCAAAAGAAAUAGUCUUGCGCUCAACCAGAAAGUCUGUAAUCACUUUAAGGGUA | 0.21
GUUAACGGUCAUAGGCCAUGGAAACUAGGAGCACCAUUCCGCUGCCAGUGUGGAAAUGAACAAAGAAAAUCUGGGCCAGGCAGGCAUCUAAAGAAAUAGUCUUGCGCUCAACCAGAAAGUCUGUAAUCAUUUUAAGGGUA | 0.32
GUUAACGGUCAUAGGCCAUGGAGACUAGGAGCACCACCUCGCUGCCAGUGAAGAAAUGAACAAAGAAAAUCUGGGCCAGGCAGGCAUCAAAUGAAAUAGUCUUGCGCUCAACCAGAAAGUCUAUAAUCAUUUUAAGGGUA | 1.18
GUUAACGGUCAUAGUCCAUGGAAACUAGGAGCACCAUUUCGCCGCCAGUGAAGAAAUGAACAGAGAAAAUCUGGGCCAGGCAGGCGUCAAAAGGAAUAGUCUCGCGCUCAACCAGAAAGUCUGUAAUCAUUUUAAGGGUA | 0.12
GUUAACGGUCAUAGGCCAUAGAAACUAGGAGCACCAUUUCGCUGCCGGGGAAGAAAUGAACAAAAAAAAUCUGGGCCAGGCAGGCAUCAAAAGAAAUAGUCUUGCGCUCAACCAGAAAGUCCGUAAUCAUUUUAAGGGUA | 0.7
GUUAACGGUCAUAGGCCAUGGAAACUAGGAGCACCAUUUCGCUGCCAGCGAAGAAAUGAACAAAGAGAAUCUGGGCCAGGCAGGCAUCAAAAGAAAUAGUCUUGCGCUCAACCAGAAAGUCUGUAAUCAUUUUAGGGGUA | 1.89
GUUAACGGUCAUAGGCCAUGGAAACUAGGAGCACCAUUUCGCUGCCAGUGAAAAAAUGGACAAAGAAAAUCUGGGCCAGGCAGGCAUCAAAAGAAAUAGGCUUGCGCUCAACCAGAAAGUCUGUAAUCAUUUUAAGGGUA | 1.73
GUUAACGGUCAUAGGCCAUGGAAACUAGGAGCACCAUUUCGCUGCCAGUGAGGAAAUGAACAAAGUAAAUCCGGGCCAGACAGGCAUCAAAAGAAAUAGUCUUGCGCUCAACCAGAAAGUCUGUAAUCAUUUUAAGGGUA | 0.16
GUUAACGGUCAUAGGCCAAGGAAACUAGGAGCGCCAUUUCGCUGCCAGUGAAGAAAUGAACAAAGAAAAUCUGGGCCAGGCAGGCAUCAAAAGAGAUAGUCUUGCGCUCAACCAGAAAGUCUGUAAUCAUUUCAAGGGUA | 1.34
GUUAACGGUCAUAGGCCAUGGAAACUAGGAGCACCAUUUCGCUGCCAGUUAAGUAAUGAACAAAGAAAAUCUGGGCCAGGCAGGCAUCAAAGGAAAUAGCCUUGCGCUCUACCAGAAAGUCUGUAAUCAUUUUAAGGGUA | 2.51
GUUAACGGUCAUAGGCCAUGGAAACUAGGAGCACCAUCUCGCUGCCAGUGAAGUAAUGAACAAAGAAAAUCUGGGCCAGGCAGGCAUCAAAAGAAAUAGUCUUGCGCUCAGCCUGAAAGUCUGUAACCACUUUAAGGGUA | 0
GUUAACGGUCAUAGGCCAUGGAAACUAGGAGCACCAUUUCGCUGCCAGUGAAGAAAUGAACAAAGAAAAUCUGGGCCUGGCAGGCCUCAAAAGAAAUAGUCUUGCGCUCAUCCAGAAAGUCUGUAAUCAUUUUAAGGGUA | 0.01
